Laboratory results taken from the supplement of paper PMC3334620.
Whole data set: some 33,000 sequences, median “E-score (-0.5 to 0.5)” near -0.054, cut for the highest 2% near 0.35. Some of the results follow.

biological target: T1, Stb5 (UniProt P38699); test: PBM E-score (8-mer binding enrichment) (E-score (-0.5 to 0.5)); higher = stronger / more preferred TF binding; most listed sequences are background and not binding sites; conditions: protein concentration: 200 nM; construct: GST-full length
T1 sequence: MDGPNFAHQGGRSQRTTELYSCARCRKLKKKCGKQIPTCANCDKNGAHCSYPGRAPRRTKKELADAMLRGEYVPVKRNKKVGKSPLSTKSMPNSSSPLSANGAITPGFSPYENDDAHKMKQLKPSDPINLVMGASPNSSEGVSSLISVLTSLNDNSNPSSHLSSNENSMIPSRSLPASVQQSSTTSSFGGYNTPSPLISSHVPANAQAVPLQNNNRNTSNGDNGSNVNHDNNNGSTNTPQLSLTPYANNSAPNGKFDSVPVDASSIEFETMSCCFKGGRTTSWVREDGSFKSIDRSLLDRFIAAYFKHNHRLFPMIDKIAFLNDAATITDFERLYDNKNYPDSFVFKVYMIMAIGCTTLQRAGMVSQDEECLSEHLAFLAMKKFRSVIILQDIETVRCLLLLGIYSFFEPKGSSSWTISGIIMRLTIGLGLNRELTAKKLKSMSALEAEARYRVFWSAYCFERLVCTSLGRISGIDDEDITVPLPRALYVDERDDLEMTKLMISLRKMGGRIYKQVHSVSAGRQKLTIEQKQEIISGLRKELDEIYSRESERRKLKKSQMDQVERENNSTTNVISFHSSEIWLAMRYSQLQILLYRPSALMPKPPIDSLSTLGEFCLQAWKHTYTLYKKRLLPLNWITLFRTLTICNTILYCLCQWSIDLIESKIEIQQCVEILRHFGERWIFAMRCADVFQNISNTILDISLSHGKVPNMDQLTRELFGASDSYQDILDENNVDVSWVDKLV
Outline: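 Each ungapped eight-base word and its reverse complement, pooled, received an E-score from the Universal PBM Analysis Suite. Underlying scans, normalised with masliner, recorded fluorescent anti-GST bound to GST-tagged yeast transcription factors. These were applied at about 100-200 nM to universal all-10-mer Agilent arrays double-stranded by primer extension.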

Row | Sequence | PBM E-score
1 | CGGGGACG | 0.141
2 | AGTGTAAC | -0.175
3 | GAAGAATA | -0.123
4 | CACGCACA | -0.0272
5 | GCCACACA | -0.0106
6 | AGGGAGCC | -0.276
7 | ACAATCAC | -0.129
8 | CAATGGTA | 0.0642
9 | CTGGCTAA | -0.156
10 | GCAGGCGC | -0.0165
11 | GCGCACGC | 0.133
12 | ATTCGAAC | -0.0642
13 | GTCGGGGA | 0.382
14 | GACTCTGA | 0.0446
15 | TGGATGAA | -0.203
16 | CGCCCCCG | 0.209
17 | ACTTACGC | 0.0737
18 | AAGGCCCC | 0.191
19 | TGCTCACA | -0.231
20 | AGTGTTTC | -0.215
21 | AGTTGAAC | -0.182
22 | AAGAATAC | -0.0805
23 | ATACTCGG | 0.134
24 | GACAATTA | 0.0266
25 | ACGAGGCG | 0.0576

Row | Sequence | PBM E-score
26 | CCGAGGAG | 0.0924
27 | CGGAGTAG | 0.242
28 | AGATAGCT | -0.0482
29 | ACCCACTG | -0.00286
30 | CAGTACCC | -0.102
31 | GGCGTTCA | 0.072
32 | ACCTAAAA | 0.0964
33 | TATACAGA | -0.138
34 | CGCATACA | 0.0776
35 | GCGGTAGA | 0.193
36 | ACTCTTAT | -0.042
37 | CATCGCAC | 0.111
38 | TCAGGACA | -0.152
39 | CGCGTCTC | 0.0131
40 | GACCGTTA | 0.278
41 | TAGTACGA | -0.0716
42 | TATAGTAA | -0.111
43 | CCCCCCTC | -0.345
44 | AAGCGCAT | -0.161
45 | CGAGTCGC | 0.00915
46 | ACCAATTA | -0.0905
47 | GACAACAC | -0.0174
48 | CGTGACGA | 0.0457
49 | TCCCGCAA | 0.0958
50 | ACACTACA | -0.149

Row | Sequence | PBM E-score
51 | GGAGTTGA | 0.0402
52 | ACGGAGGC | 0.172
53 | GATCACGC | -0.183
54 | ACGAATAG | -0.207
55 | CTCCTAGC | -0.184
56 | CCAGTAGG | -0.0926
57 | TATTACCA | 0.0377
58 | ACTCTCCG | 0.0916
59 | TCTCGGCA | 0.12
60 | CCCCTTAA | -0.0771
61 | ACACATAA | -0.068
62 | GCACGCAC | 0.00442
63 | AACGGGAG | 0.137
64 | TCACGCGA | -0.0286
65 | AAGCTGCT | -0.182
66 | TAGACGGA | 0.202
67 | GAGCTTTA | 0.0494
68 | GCGGGACC | 0.237
69 | CCTCGAGA | -0.223
70 | ACCTCACT | 0.00558
71 | ACACGTAG | -0.15
72 | CGGTAGGC | 0.162
73 | GTGGCTTA | -0.171
74 | CTTCCAAC | -0.12
75 | CGCAGTCC | 0.0154

Row | Sequence | PBM E-score
76 | GAGGCTTA | -0.203
77 | CGTAGCAA | -0.201
78 | AGTGTACA | -0.174
79 | AGGGGAGA | -0.196
80 | TTTTAAAA | 0.242
81 | GCGGAATA | 0.138
82 | GCATGAAC | 0.0263
83 | CGGCGTTC | 0.342
84 | CCCGACGA | 0.31
85 | ATTGATAA | -0.248
86 | CCTAGTAG | -0.143
87 | CCTGGTAA | -0.226
88 | CAGATGGG | -0.282
89 | ACCATCGT | -0.0656
90 | ACCGAATA | 0.0403
91 | CAAGACGG | 0.125
92 | GTCCCGGA | 0.258
93 | CACCATGC | 0.0199
94 | GAGTTTTA | 0.172
95 | AGCACAAA | -0.177
96 | ATAATTAG | 0.0459
97 | ACCATGTG | -0.113
98 | AAAGCGTC | -0.0832
99 | TCCCATCA | -0.11
100 | GCGTGGAA | -0.0902

Row | Sequence | PBM E-score
101 | GTACAAAC | 0.0439
102 | TATGGTAA | -0.0663
103 | GGCATGTA | -0.11
104 | CCAGACCG | 0.161
105 | CATCCACC | -0.0273
106 | GTAAGAAA | 0.0351
107 | AACGAGTC | -0.219
108 | AGCCTCGC | -0.0812
109 | AGCATTGG | -0.164
110 | CATAACCA | -0.25
111 | ATTAGTGA | 0.00773
112 | GTGAGTCA | -0.176
113 | AGCCCGGC | 0.284
114 | CCCACAGC | -0.146
115 | AAAGTACT | -0.0364
116 | GAGACTCC | 0.0906
117 | CGCTGTCC | 0.121
118 | CAAAAGTG | -0.0942
119 | AGGAGAGA | -0.133
120 | GTCAAGTA | -0.184
121 | CGAAAGTC | 0.0398
122 | CACTGCGC | -0.108
123 | AAAGAGTG | -0.173
124 | AGTAAAAG | -0.0967
125 | GTCCACTA | -0.0867

Row | Sequence | PBM E-score
126 | AACCCAGG | -0.233
127 | ATTGCGAA | 0.0132
128 | AGTCGGTA | 0.36
129 | ACTCTACC | -0.0317
130 | TGGAAGAA | -0.0838
131 | ATCATGCC | 0.0134
132 | GGTGGTAA | 0.248
133 | AGTGCTGC | -0.18
134 | CAGTTATC | 0.0128
135 | CAGGTTAA | -0.0457
136 | AAACTCTA | -0.134
137 | CTATGAGA | -0.27
138 | AAAATCTA | -0.0323
139 | ATGATGGC | -0.19
140 | AGCTACAA | -0.165
141 | ACGAGAGA | -0.0989
142 | ATTCAGTC | 0.0107
143 | AAAATAGA | 0.0979
144 | AAATCACA | -0.128
145 | AGCGGCCA | 0.177
146 | CGATCCCC | 0.131
147 | CCCGTGCC | 0.221
148 | GATGCTAC | -0.0969
149 | AATGAAAT | 0.0804
150 | AACTCGGT | 0.153

Row | Sequence | PBM E-score
151 | AAAAAGAA | 0.175
152 | GCTCTACC | -0.0504
153 | AACATTGT | -0.0384
154 | AGTATCCC | 0.0337
155 | TCTCTGAA | -0.102
156 | ATAGAATC | 0.175
157 | AATTACGG | 0.165
158 | ACATGATG | -0.271
159 | GTTTTTAA | 0.154
160 | AACCCATA | -0.291
161 | ACCGTCGG | 0.392
162 | ATCGCCGG | 0.368
163 | GCTCCACC | 0.071
164 | ACCCCTCG | -0.115
165 | AGTGACTG | -0.215
166 | AGCTCAAC | -0.199
167 | ACGGTTAT | 0.169
168 | CAATGAGA | -0.173
169 | ACCGTCCT | 0.111
170 | CCTTGGAG | -0.102
171 | AACGATTG | -0.156
172 | ACCAGGTA | -0.0151
